Data published in the supplement of paper PMC4967469.
The IC50 comes from the fitted curve, where viability falls to half of the control; a fit beyond the top or the lowest dose is shown as a bound at that dose. The AUC spans the tested range (256-fold, ending at the top dose) of the same fit; the more sensitive the line, the further below 1. Where the top dose is marked as inferred, it is not printed in the source and was worked back from the curve model. For part of these data: Where an entry number is given, a second screen of the drug exists; the two often differ.

Legend:
Assay in all cases: Viability of human cancer cell lines after 72 h of drug (GDSC screen)
Olaparib = compound: O=C(c1cc(Cc2n[nH]c(=O)c3ccccc23)ccc1F)N1CCN(C(=O)C2CC2)CC1 [Olaparib]
Method: (§1)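 Human cancer cell lines in 384-well plates, medium with 10% serum, drug for 72 h over a 256-fold dose range (nine 2-fold or five 4-fold steps up to the top dose). Adherent lines were fixed and stained with the nucleic acid dye Syto60, suspension lines read with resazurin; signal relative to control wells, capped at 0 and 100%. One two-parameter sigmoid per drug and line, fitted in a mixed model over all curves with the slope shared within a line.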

XMD8-85 = compound: COc1cc(N2CCN(C)CC2)ccc1Nc1ncc2c(n1)N(C)c1ccccc1C(=O)N2C [XMD8-85]; conditions: top dose 8 µM; top dose inferred
Method: as §1

CGP-082996 (CINK4) = compound: CCNc1cc(NC2CCC(O)CC2)nc(Nc2ccc3c(ccn3Cc3ccccc3)c2)n1 [CGP-082996 (CINK4)]; conditions: top dose 5.12 µM; top dose inferred
Method: as §1

HG-5-113-01 = compound: CNC(=O)c1ccc(Nc2cc(Nc3ccccc3S(=O)(=O)C(C)C)c3cc[nH]c3n2)nc1 [HG-5-113-01]; conditions: top dose 10 µM; top dose inferred
Method: as §1

A-770041 = compound: COc1cc(-c2nn([C@H]3CC[C@H](N4CCN(C(C)=O)CC4)CC3)c3ncnc(N)c23)ccc1NC(=O)c1cc2ccccc2n1C [A-770041]; conditions: top dose 5.12 µM; top dose inferred
Method: as §1

Wee1 inhibitor 681640 = compound: O=C1NC(=O)c2c1c(-c1ccccc1Cl)cc1[nH]c3ccc(O)cc3c21 [Wee1 inhibitor 681640]; conditions: top dose 2 µM; top dose inferred
Method: as §1

BMS-536924 = compound: Cc1cc(N2CCOCC2)cc2[nH]c(-c3c(NC[C@@H](O)c4cccc(Cl)c4)cc[nH]c3=O)nc12 [BMS-536924]
Method: as §1

SB-525334 = compound: Cc1cccc(-c2[nH]c(C(C)(C)C)nc2-c2ccc3nccnc3c2)n1 [SB-525334]; conditions: top dose 20 µM; top dose inferred
Method: as §1

Shikonin = compound: CC(C)=CC[C@@H](O)C1=CC(=O)c2c(O)ccc(O)c2C1=O [Shikonin]; conditions: top dose 16 µM; top dose inferred
Method: as §1

BIRB 0796 = compound: Cc1ccc(-n2nc(C(C)(C)C)cc2NC(=O)Nc2ccc(OCCN3CCOCC3)c3ccccc23)cc1 [BIRB 0796]; conditions: top dose 10 µM; top dose inferred
Method: as §1

VX-702 = compound: NC(=O)c1ccc(N(C(N)=O)c2c(F)cccc2F)nc1-c1ccc(F)cc1F [VX-702]; conditions: top dose 2 µM; top dose inferred
Method: as §1

[1] = top dose 5 µM, screen: GDSC drug entry 1017, top dose inferred
[2] = top dose 10 µM, screen: GDSC drug entry 1495
[3] = top dose 4 µM, screen: GDSC drug entry 1091, top dose inferred
[4] = top dose 5.12 µM, screen: GDSC drug entry 62

| Cell Line | AUC (Olaparib; [1]) | IC50 (Olaparib; [1]) [µM] | AUC (Olaparib; [2]) | IC50 (Olaparib; [2]) [µM] | AUC (XMD8-85) | IC50 (XMD8-85) [µM] | AUC (CGP-082996 (CINK4)) | IC50 (CGP-082996 (CINK4)) [µM] | AUC (HG-5-113-01) | IC50 (HG-5-113-01) [µM] | AUC (A-770041) | IC50 (A-770041) [µM] | AUC (Wee1 inhibitor 681640) | IC50 (Wee1 inhibitor 681640) [µM] | AUC (BMS-536924; [3]) | IC50 (BMS-536924; [3]) [µM] | AUC (BMS-536924; [4]) | IC50 (BMS-536924; [4]) [µM] | AUC (SB-525334) | IC50 (SB-525334) [µM] | AUC (Shikonin) | IC50 (Shikonin) [µM] | AUC (BIRB 0796) | IC50 (BIRB 0796) [µM] | AUC (VX-702) | IC50 (VX-702) [µM] |
| --- | --- | --- | --- | --- | --- | --- | --- | --- | --- | --- | --- | --- | --- | --- | --- | --- | --- | --- | --- | --- | --- | --- | --- | --- | --- | --- |
| NB1 (neuroblastoma, semi-adherent) | 0.973 | > 5 | 0.955 | > 10 | 0.889 | > 8 | 0.862 | > 5.12 | 0.489 | 0.58 | 0.965 | > 5.12 | 0.975 | > 2 | 0.781 | 1.83 | 0.94 | > 5.12 | 0.661 | 3.68 | 0.52 | 1.14 | 0.952 | > 10 | 0.98 | > 2 |
| NB5 (neuroblastoma, adherent) | 0.953 | > 5 | 0.905 | > 10 | 0.94 | > 8 | 0.986 | > 5.12 | 0.672 | 1.89 | 0.886 | > 5.12 | 0.957 | > 2 | 0.878 | > 4 | 0.698 | 1.17 | 0.92 | > 20 | 0.579 | 1.65 | 0.986 | > 10 | 0.971 | > 2 |
| NB6 (neuroblastoma, adherent) | 0.982 | > 5 |  |  | 0.978 | > 8 | 0.984 | > 5.12 | 0.871 | > 10 | 0.956 | > 5.12 | 0.908 | > 2 | 0.96 | > 4 | 0.983 | > 5.12 | 0.762 | 8.75 | 0.381 | 0.434 | 0.977 | > 10 | 0.978 | > 2 |
| NB10 (neuroblastoma, adherent) | 0.926 | > 5 | 0.8 | 4.72 | 0.959 | > 8 | 0.988 | > 5.12 | 0.696 | 2.18 | 0.988 | > 5.12 | 0.97 | > 2 | 0.765 | 1.43 | 0.96 | > 5.12 | 0.805 | 9.8 | 0.591 | 1.76 | 0.983 | > 10 | 0.988 | > 2 |
| NB13 (neuroblastoma, adherent) | 0.99 | > 5 | 0.984 | > 10 | 0.969 | > 8 | 0.98 | > 5.12 | 0.711 | 2.26 | 0.934 | > 5.12 | 0.822 | 0.995 | 0.878 | 3.25 | 0.845 | 3.09 | 0.837 | 11.2 | 0.297 | 0.291 | 0.989 | > 10 | 0.988 | > 2 |
| NB14 (neuroblastoma, adherent) | 0.932 | > 5 | 0.943 | > 10 | 0.989 | > 8 | 0.936 | > 5.12 | 0.487 | 0.577 | 0.989 | > 5.12 | 0.959 | > 2 | 0.806 | 1.9 | 0.988 | > 5.12 | 0.708 | 4.64 | 0.061 | < 0.0625 | 0.889 | > 10 | 0.989 | > 2 |
| NB69 (neuroblastoma, adherent) | 0.913 | > 5 |  |  | 0.824 | 4.05 | 0.989 | > 5.12 | 0.507 | 0.65 | 0.823 | 2.57 | 0.99 | > 2 |  |  | 0.502 | 0.324 | 0.922 | > 20 | 0.26 | 0.228 | 0.977 | > 10 | 0.976 | > 2 |
| NB(TU)1-10 (neuroblastoma, adherent) | 0.948 | > 5 | 0.993 | > 10 | 0.891 | 7.12 | 0.992 | > 5.12 | 0.989 | > 10 | 0.945 | > 5.12 | 0.989 | > 2 | 0.979 | > 4 | 0.54 | 0.406 | 0.912 | > 20 | 0.345 | 0.397 | 0.993 | > 10 | 0.94 | > 2 |
| NB-4 (acute myeloid leukaemia, suspension) | 0.964 | > 5 | 0.961 | > 10 | 0.889 | 6.26 | 0.959 | > 5.12 | 0.632 | 1.34 | 0.824 | 2.35 | 0.972 | > 2 | 0.767 | 1.23 | 0.991 | > 5.12 | 0.918 | > 20 | 0.646 | 2.33 | 0.991 | > 10 | 0.966 | > 2 |
